# Measured values reported in PubChem BioAssay AID488969 (Vanderbilt High Throughput Screening Facility, 2010).
# In all, about 110,000 compounds were measured (“z-score”: median about -0.1, highest 2% from about 2 on). The list shows a part of the results.
# Biological target: Metabotropic glutamate receptor 8 (Rattus norvegicus) (UniProt P70579)
# Test: rat mGluR8 modulators via GIRK flux, primary screen, cell-based, thallium flux, HTS (AID 488969)
# Details: HEK293 rat mGluR8, GIRK (G protein-gated inwardly rectifying potassium channel) thallium flux, FluoZin2; at 10 µM; stronger effect = higher value; submaximal glutamate (EC20) added with thallium
# Sequence of UniProt P70579 (P70579 whole entry, looked up): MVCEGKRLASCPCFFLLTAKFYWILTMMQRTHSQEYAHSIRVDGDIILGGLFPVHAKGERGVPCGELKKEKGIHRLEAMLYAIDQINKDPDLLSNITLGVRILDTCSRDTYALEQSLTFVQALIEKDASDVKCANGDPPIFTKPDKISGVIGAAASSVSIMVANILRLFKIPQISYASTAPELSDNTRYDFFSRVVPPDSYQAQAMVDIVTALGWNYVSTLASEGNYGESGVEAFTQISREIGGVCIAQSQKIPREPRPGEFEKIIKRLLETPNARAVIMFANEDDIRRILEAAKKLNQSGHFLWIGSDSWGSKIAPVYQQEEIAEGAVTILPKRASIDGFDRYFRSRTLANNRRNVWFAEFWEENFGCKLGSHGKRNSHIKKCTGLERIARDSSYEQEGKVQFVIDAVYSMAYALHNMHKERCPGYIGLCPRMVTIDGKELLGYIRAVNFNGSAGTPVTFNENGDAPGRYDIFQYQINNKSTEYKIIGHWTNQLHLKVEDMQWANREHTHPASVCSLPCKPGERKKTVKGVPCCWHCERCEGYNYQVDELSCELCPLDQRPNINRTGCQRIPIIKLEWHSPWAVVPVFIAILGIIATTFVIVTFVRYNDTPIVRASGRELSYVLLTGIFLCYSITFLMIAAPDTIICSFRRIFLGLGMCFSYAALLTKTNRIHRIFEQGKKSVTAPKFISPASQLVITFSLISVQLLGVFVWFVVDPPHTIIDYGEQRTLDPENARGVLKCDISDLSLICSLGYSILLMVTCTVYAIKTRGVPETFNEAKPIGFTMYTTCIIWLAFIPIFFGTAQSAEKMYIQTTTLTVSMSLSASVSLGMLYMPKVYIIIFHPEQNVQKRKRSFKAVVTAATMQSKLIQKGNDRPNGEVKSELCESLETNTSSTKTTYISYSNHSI
row,Structure (SMILES),z-score
1,C=CCN1C(=O)C(O)(CC(=O)c2c(C)n[nH]c2C)c2cc(Br)ccc21 (stereo not drawn),-0.0393
2,O=C(NCC(=O)N(Cc1ccco1)C(C(=O)NC1CCCC1)c1ccncc1)c1cccs1 (stereo not drawn),-0.236
3,COC(=O)CNC(=O)c1ccccc1[N+](=O)[O-],-0.154
4,CC(C)(C)NS(=O)(=O)c1cc(C(=O)Nc2sccc2C#N)ccc1Cl,-0.214
5,Cc1ccccc1CN(c1ccc(C(=O)N2CCCC2)cc1)S(C)(=O)=O,-0.101
6,O=C(CSc1ncn[nH]1)Nc1cccc2ccccc12,0.0743
7,CC#CCCCC(=O)Nc1cc(OC)nc(OC)n1,-0.0455
8,COCCn1c(=S)[nH]c2cc(C(=O)N3CCN(c4ccccc4OC)CC3)ccc2c1=O,-0.495
9,COc1cc2c(c(OC)c1)C(c1cccc(OC)c1OC)CC(=O)N2 (stereo not drawn),-1.8
10,Cc1cccc(C)c1NC(=O)N1CCC(n2cnc3ccccc32)CC1,-0.0892
11,CN(C)CCNC(=O)/C=N/O,0.333
12,COc1cccc(C(=O)Nc2c(F)c(F)c(F)c(F)c2F)c1,-0.711
13,Cc1cc(NC(=O)COC(=O)CCC(=O)c2ccc(F)cc2)no1,-0.305
14,O=C(Cn1nc(C(F)(F)F)cc1C1CC1)NCc1ccccc1F,-0.325
15,CC(C)NC(=O)CSCc1cccc(Br)c1,-0.385
16,Cn1c(=O)c(C(=O)NCCO)c(O)c2ccccc21,-0.135
17,CCOCCCNC(=O)C(NC(=O)c1ccc(=O)[nH]c1)c1ccccc1 (stereo not drawn),1.17
18,CCCOc1ccc2ccccc2c1/C=N/n1c(C)nnc1-n1nc(C)cc1C,-1.98
19,O=C(Nc1nccs1)c1cc2sccc2n1Cc1ccc(F)cc1,-0.691
20,CCOc1cccc2sc(NC(=O)CC)nc12,0.0368
21,C=CCNc1nc(-c2ccccc2)c(C(=O)OCC)cc1C#N,-0.303
22,Cc1cccc(C(=O)NNC(=O)CCC(=O)Nc2cccc(Cl)c2C)c1,-0.102
23,O=C1CCCN1CCNC(=S)Nc1ccccc1,-0.127

row,Structure (SMILES),z-score
1,Cc1ccccc1C(=O)Nc1cccc(NC(=O)c2ccc(-c3ccc(Br)cc3)o2)c1,-0.485
2,O=C(O)CC(=O)Nc1cc(Cl)ccc1O,0.845
3,COc1ccc(CCNC(=O)c2cc(-c3ccc(Cl)c(Cl)c3)oc2C)cc1,-0.22
4,CCN(CC)c1ncn(Cc2c(Cl)cccc2Cl)c2ncnc1-2,-0.869
5,CC(=O)NC1=NC(=O)C(C)S1 (stereo not drawn),-0.291
6,COc1ccc(S(=O)(=O)N2CCC(C(N)=O)CC2)c2ccccc12,-0.165
7,Cc1nn2c(N3CCN(C(=O)c4ccco4)CC3)cc(C(C)(C)C)nc2c1-c1ccccc1,-0.282
8,COc1ccc2c(c1)CCc1c(C(=O)Nc3ccc(OC)c(OC)c3)noc1-2,0.697
9,O=C(NCCc1ccccc1)c1oc2ccccc2c1COc1ccccc1,-0.293
10,CCc1nnc(NC(=O)c2ccc3c(c2)C(=O)N(CC)C3=O)s1,-0.0701
11,Cc1c(N2C(=O)c3ccc(F)cc3C2=O)c(=O)n(-c2ccccc2)n1C,0.0127
12,Oc1cccc(C(=S)N2CCN(Cc3ccccc3)CC2)c1,0.262
13,Fc1ccc(CN(Cc2ccccc2)C(c2cccs2)c2nnnn2C2CCCCC2)cc1 (stereo not drawn),-0.638
14,NCC/C=C1/c2ccccc2CSc2ccccc21,1.44
15,CC12CC3CC(C)(C1)CC(CN)(C3)C2,0.604
16,Cc1ccc(-n2c(SCC(=O)NCCN3C(=O)CSC3=O)nnc2-c2ccccc2)cc1,0.0356
17,CCOC(=O)C1=c2/c(=C/c3ccccc3OC)c(N)c(C#N)n2C(=O)C(c2ccccc2OC)S1 (stereo not drawn),-0.49
18,CC(C)(C)c1ccc(C(=O)C=[N+]=[N-])cc1,-0.371
19,O=C1c2ccccc2C(=O)N1c1cccnc1,0.138
20,Cc1ccccc1NC(=O)c1ccccc1,0.686
21,Cc1ccc(-c2nnn(CC(=O)N(Cc3ccc(F)cc3)C(C(=O)NC3CCCC3)c3ccncc3)n2)o1 (stereo not drawn),-0.423
22,CCOC(=O)c1cn2cccnc2n1,0.35
23,COc1ccc(C2SCC(=O)N2CC23CC4CC(CC(C4)C2)C3)cc1 (stereo not drawn),-0.23

row,Structure (SMILES),z-score
1,COc1ccccc1NC(=O)CSc1nncn1-c1cccnc1,-0.0905
2,CC1=C(C(=O)Nc2ccccn2)C(c2ccc(Br)cc2)n2ncnc2N1 (stereo not drawn),-0.306
3,O=C(Nc1ncccc1Cl)c1cccc(F)c1,-0.272
4,O=C1CCC(C(=O)OCC(=O)C23CC4CC(CC(C4)C2)C3)N1 (stereo not drawn),0.988
5,CCOc1ccc(NC(=O)C(c2ccccn2)N(C(=O)CCl)c2ccc(F)cc2)cc1 (stereo not drawn),0.0895
6,Cc1cc(SCC(=O)NC(=O)NCc2ccco2)nc2ccccc12,-0.269
7,Cc1onc(-c2c(F)cccc2Cl)c1C(=O)Nc1nnc(-c2ccccc2)s1,-0.429
8,Cc1sc2nc(COC(=O)CNC(=O)c3ccc(C(C)(C)C)cc3)[nH]c(=O)c2c1C,-0.282
9,CSc1nc(C)cc(C)c1S(=O)(=O)c1ccccc1C,-0.374
10,Cn1c(=O)c2cn(-c3ccc4c(c3)OCCO4)cc2n(C)c1=O,0.592
11,Cc1ccc(NC(=S)NNC(=O)C2CC2c2ccc(C)cc2)cc1 (stereo not drawn),1.64
12,O=C(O)CCCC(=O)N1N=C(c2ccccc2)CC1c1ccc2nccnc2c1 (stereo not drawn),0.221
13,CCN(CC)CCCNC(=O)c1cc(-c2cccc(Cl)c2)on1,2.64
14,O=C(NC1CCCC1)c1cnc2n(c1=O)CCS2,-0.474
15,O=C(Cc1ccc(-n2cccc2)cc1)NCc1cccs1,-0.575
16,COc1ccc(CCN2C(=NC(=O)CC(C)C)SC3CS(=O)(=O)CC32)cc1 (stereo not drawn),0.0119
17,COc1ccc(-n2c(SCC(=O)Nc3sc4c(c3C#N)CCCC4)nnc2-c2ccccc2OC)cc1,-0.898
18,COc1cccc(C(=O)Nc2ccc(NC(=O)C(C)(C)C)cn2)c1,0.0192
19,Cc1cc(NC(=O)c2ccc(F)cc2)n(CCOC(=O)c2ccc(F)cc2)n1,-0.0704
20,O=C(OCC(=O)N1CCc2ccccc21)c1cccnc1Cl,0.118
21,O=C(COc1ccccc1O)Nc1ccc(Cl)cc1,-0.0165
22,COCCNS(=O)(=O)c1ccc2c(c1)oc(=O)c1cc(S(=O)(=O)NCCOC)ccc12,0.353
23,COC(=O)c1ccc(C(=O)OC)c(NC(=O)Oc2ccccc2)c1,-0.285

row,Structure (SMILES),z-score
1,Cc1cc(C(F)(F)F)n(-c2nc(C(=O)NNS(=O)(=O)c3ccccc3)cs2)n1,0.622
2,COc1ccccc1OCCOc1ccc(/C=C2/C(=N)N3OC(C)=CC3=NC2=O)cc1OC,-0.177
3,CC1CCCCN1CCn1c(=S)[nH]c2ncccc2c1=O (stereo not drawn),1.22
4,Fc1cc(F)c(F)c(SCCc2ccncc2)c1F,-0.679
5,CC(C)=NOC(=O)c1ccc(-c2ccccc2)cc1,-0.0217
6,Cn1c(=O)[nH]c(=O)c2c1nc(N1CCCC1)n2CC(O)COc1ccccc1 (stereo not drawn),-0.304
7,CCC1(CC)C(=O)C(C)(C)C(=O)OC1c1cccs1 (stereo not drawn),-0.0259
8,CCOC(=O)C1CCN(C(=O)Nc2ccc3snnc3c2)CC1,-0.867
9,COc1cc2c(=O)n(CC3CCCO3)c(=O)n(CC(=O)Nc3cccc(Cl)c3)c2cc1OC (stereo not drawn),-0.197
10,O=C(NCc1ccccn1)/C(=N/O)c1ccccc1,-0.962
11,COc1cc(CO)cc(Br)c1OCC(=O)O,1.44
12,O=S(=O)(c1cccs1)N1CCN(Cc2ccccc2)CC1,-0.34
13,O=C(c1ccc(COc2ccc(Cl)cc2)o1)N1CCN(Cc2ccc3c(c2)OCO3)CC1,0.601
14,CCOC(CNc1c([N+](=O)[O-])c(=O)n(C)c(=O)n1C)OCC,-0.287
15,Cc1c(C(=O)N(C)C)sc(NC(=O)c2cc([N+](=O)[O-])cc([N+](=O)[O-])c2)c1C#N,-0.153
16,Cc1nn(-c2ccccc2)c(C)c1/C=N/NC(=O)c1cc(-c2ccccc2)n[nH]1,-0.451
17,O=C(Nc1ccccc1C(F)(F)F)N1CCN(C(c2ccccc2)c2ccccc2)CC1,-0.492
18,COC(=O)c1ccccc1NC(=O)Cn1c(-c2nonc2N)nc2ccccc21,0.233
19,O=C(NCC(=O)N(Cc1ccco1)C(C(=O)NC1CCCCC1)c1cccnc1)c1cccs1 (stereo not drawn),0.277
20,c1ccc(-c2n[nH]c3c2CCC3)cc1,-0.528
21,CN(C)CCC1Sc2ccccc2Oc2ccccc21 (stereo not drawn),1.77
22,CN1C(=O)C(O)(CC(=O)/C=C/C=C/c2ccccc2)c2ccccc21 (stereo not drawn),0.0047
23,Cc1ccc(CN2CCN(C(=O)C3CCCO3)CC2)cc1 (stereo not drawn),-0.195

row,Structure (SMILES),z-score
1,COC(=O)C(C)(C)ONC(=O)Nc1ccccc1,-0.0433
2,CCOc1ncccc1C(=O)OCC(=O)Nc1c(C)cc(C)cc1C,-0.13
3,Cc1ccc(NC(=O)CN(C)C(=O)CCOc2cccc(C)c2)cc1,-0.0456
4,COc1ccc2nc(NC(=O)CNS(=O)(=O)c3cccs3)sc2c1,0.961
5,O=C(CNC(=O)c1ccc(S(=O)(=O)N2CCCC2)cc1)N/N=C/c1ccccc1,-0.345
6,O=C(NCc1ccccn1)c1cc2ccccc2oc1=O,0.513
7,O=C1CC(c2ccccc2)n2ncnc2N1 (stereo not drawn),0.0831
8,COc1ccc(C(C(=O)NC2CCCCC2)N(CC2CCCO2)C(=O)C2COc3ccccc3O2)cc1OC (stereo not drawn),-0.167
9,Cn1c(C(O)c2ccc3c(c2)OCO3)nc2ccccc21 (stereo not drawn),0.102
10,CCSC1=N/C(=C\c2ccc(C)s2)C(=O)S1,-1.31
11,COc1ccc2c(C(=O)CN3CCN(CCO)CC3)c[nH]c2c1,-0.118
12,CCOC(=O)NC(c1cccc(Cl)c1)C1CCCCCC1=O (stereo not drawn),-0.163
13,COc1ccc(CCCC(=O)NCc2ccccc2)cc1C,-0.246
14,CCC1(C)N([O-])C(C)=C(c2ccccc2)[N+]1=O (stereo not drawn),-0.263
15,O=C(Oc1c(Br)cc(C(=S)N2CCOCC2)cc1Br)c1ccc(Cl)cc1,-0.0247
16,CC1=Nc2nc(N3CCCCC3)c(C#N)c3c4c(nc(c23)N1)N(c1ccc(C(C)C)cc1)C(=O)C4,-0.0128
17,COc1cccc(-n2c(C)n[nH]c2=O)c1,1.2
18,CCOc1ccc(N2C(=O)CS/C2=C(\C(Cl)=C(Cl)Cl)[N+](=O)[O-])cc1,-0.279
19,CC(/C=C1\SC(=S)N(CCCC(=O)Nc2ccc(C(=O)O)c(O)c2)C1=O)=C\c1ccccc1,1.3
20,CCOC(=O)c1ccc(NC(=O)CCc2nc(-c3ccc(C)cc3)no2)cc1,0.00119
21,CCOC(=O)c1nnn(-c2nonc2N)c1COc1ccc(F)cc1,-0.0888
